# According to PubChem BioAssay AID1508623 (National Center for Advancing Translational Sciences (NCATS), 2021):
# Among all 48,000 compounds or so, about 450 (0.94%) were called active. Roughly 19% stayed inconclusive and do not appear here. Calls follow the shape of the dose curve; as a rule, active = well fitted inhibition curve with a large enough effect; inconclusive = small, poorly fitted or top-dose-only effect; inactive = no such curve, though single readings can be large or run the other way. The list shows a part of the results.
# Experiment: Primary qHTS for Identification of Small Molecule Inhibitors of Huntingtin Promoter Activity; also: nearly all actives have a fitted effect of over 50% in size
# Conditions: HEK293 HTT promoter firefly luciferase reporter (activity 0% = vehicle and -100% = no light), 24 h; series mostly up to 57.5 µM; activity change, negative = inhibition: at the top concentration
# Method in brief: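 Firefly luciferase signal from promoter-reporter HEK293 cells was scaled between vehicle (0%) and zero RLU (-100%). Compounds were tested at final concentrations of up to 57.5 uM over 24 h at 37 degrees C. PTC124 at 50 uM final served as control inhibitor.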
# Potency is read from the fitted curve at half-maximal effect.
SMILES,"activity change, negative = inhibition",Potency
O=C(Nc1sc2c(c1C(=O)NCc1ccccc1)CCCC2)c1cc(=O)c2ccccc2o1,inactive: -14.2%,–
COc1nnc(-c2ccc(N3CCCCC3)c(NC(=O)c3ccccc3Cl)c2)c2ccccc12,–,active: 11.2 µM
O=C(NCc1ccc(Cl)cc1)C1CCN(c2ncnc3c2nc2n3CCCCC2)CC1,inactive: 1.62%,–
CCOc1ccccc1C(=O)NCC(c1cccs1)S(=O)(=O)c1ccc(F)c(C)c1 (stereo not given),inactive: -17.8%,–
CC1CCN(C(=O)Cn2cc(SCC(=O)Nc3ccccc3)c3ccccc32)CC1,inactive: 0.75%,–
COc1cccc(-c2nc(SCC(=O)NCc3ccco3)c3c(=O)n(C)c(=O)n(C)c3n2)c1,inactive: 14.7%,–
CCOC(=O)c1noc2ncnc(N3CCN(c4cccc(C(F)(F)F)c4)CC3)c12,inactive: -23.1%,–
COc1ccc(Cn2c(=O)n(-c3ccc(OC)cc3)c(=O)c3c2c2cc(OC)ccc2n3C)cc1,inactive: -13.2%,–
COc1ccc(-c2cc(C)no2)cc1S(=O)(=O)NCc1ccco1,inactive: -18.8%,–
CCOC(=O)c1c(-c2ccc(C)cc2)csc1NC(=O)c1cc(=O)c2cc(C)cc(C)c2o1,inactive: 0.0274%,–
COc1ccc(-n2c(SCc3ccccc3F)nc3c([nH]c4ccccc43)c2=O)cc1OC,inactive: -27.6%,–
COc1cc(NC(=O)c2c3c(nc4ccccc24)C(=O)N(C2CCCCC2)C3)cc(OC)c1,inactive: -8.67%,–
CCOc1ccc(-c2nonc2NC(=O)c2oc3ccc(C)cc3c2C)cc1OCC,inactive: -15.8%,–
COc1ccc(Cn2ccn(Cc3cccc(Cl)c3)c(=O)c2=O)cc1,inactive: -22.9%,–
CCCn1cc(S(=O)(=O)c2ccc(OC)cc2)c(=O)c2cc(F)c(N3CCCC(C)C3)cc21 (stereo not given),inactive: -11.5%,–
O=C(COc1ccccc1F)Nc1c(C(=O)Nc2cccc(F)c2)oc2ccccc12,inactive: -2.7%,–
Cc1ccc(C(=O)Nc2nc3nc(-c4ccccc4)cc(=O)n3[nH]2)cc1,inactive: -5.82%,–
CCCCCOC(=O)CSc1nc2sc3c(c2c(=O)n1-c1ccccc1)CC(C)(CC)OC3 (stereo not given),inactive: -4.26%,–
Cc1ccc(CNC(=O)CCS(=O)(=O)c2cc3c(cc2C)NC(=O)CO3)cc1,inactive: -1.84%,–
O=C(CSc1nc2c(oc3ccccc32)c(=O)n1Cc1ccco1)Nc1ccccc1,inactive: -5.03%,–

SMILES,"activity change, negative = inhibition",Potency
Cc1ccc(CN2CCCN(Cc3c(C)cc(C)cc3C)S2(=O)=O)cc1,inactive: 1.67%,–
Cc1cccc(CSc2nc(-c3cccc(C)c3)nc3c2Cc2c(CO)cnc(C)c2O3)c1,inactive: -10.2%,–
COc1ccc(C)cc1NC(=O)COCc1cc(-c2ccc(F)cc2)on1,inactive: -3.92%,–
CC(C)(C)C(=O)OCc1cc(=O)n2nc(C3CC3)sc2n1,inactive: 4.92%,–
Cc1nn(Cc2noc(C(=O)NC(C)c3ccccc3)n2)c(C)c1Br (stereo not given),inactive: -17.7%,–
Cc1ccc(N2CCN(S(=O)(=O)c3c(C)[nH]c(=O)[nH]c3=O)CC2C)cc1 (stereo not given),inactive: -11.3%,–
CCOC(=O)c1cc(-c2ccccc2)n(CC(=O)Nc2ccc(CC)cc2)c1C,inactive: -8.05%,–
CCCN(CCC)c1nn2c(=O)c(C(=O)NCc3cc(Br)ccc3OC)cnc2s1,inactive: -1.23%,–
COc1cc(Cl)c(C)cc1NC(=O)Cn1cc(S(=O)(=O)N2CCC(C)CC2)c2ccccc2c1=O,inactive: -8.13%,–
CC1(C)O[C@@H]2[C@@H](CO[C@@]3(COS(N)(=O)=O)OC(C)(C)O[C@@H]23)O1,inactive: 4.75%,–
COc1ccc(OC)c(CCNC(=O)CCn2c(=O)c3cccn3c3ccc(F)cc32)c1,inactive: 0.296%,–
Cc1cccc(S(=O)(=O)c2cn(C)c3cc(N4CCN(c5ccc(F)cc5)CC4)c(F)cc3c2=O)c1,inactive: -20.7%,–
CC(C)c1ccc(NC(=O)CSC2=Nc3ccccc3C3=NC(CCC(=O)NCc4ccco4)C(=O)N23)cc1 (stereo not given),inactive: 11.2%,–
COc1cc(NS(=O)(=O)c2ccc(N)cc2)nc(OC)n1,inactive,–
CC[N+](CC)(CC(=O)Nc1c(C)cccc1C)Cc1ccccc1,inactive: -4.65%,–
CC(C)n1cnc2c(NCCCCCCNC(=O)OC(C)(C)C)nc(NCCO)nc21,inactive: -25.9%,–
CCCCNC(=O)c1ccccc1NC(=O)CN(c1ccccc1)S(=O)(=O)N(C)C,inactive: -16.9%,–
O=C(CSc1nc(=O)n(Cc2ccco2)c2c1CCC2)Nc1ccccc1C(F)(F)F,inactive: -1.7%,–
Cc1ccc2c(=O)cc(C(=O)Nc3ccc(S(=O)(=O)N4CCCCCC4)cc3)oc2c1,inactive: 7.31%,–
Cc1ccc(Cl)cc1N1CCN(C(=O)c2cc(S(=O)(=O)N3CCCC3)c[nH]2)CC1,inactive: -22.1%,–

SMILES,"activity change, negative = inhibition",Potency
CCOC(=O)CNC(c1ccccc1)c1cc(Br)ccc1NC(=O)c1cccc(Cl)c1 (stereo not given),inactive: 0.125%,–
CCc1nnc(SCC(=O)N(CC)c2ccccc2)c2cc3oc(C)cc3n12,inactive: 0.143%,–
CC(=O)N1CCCc2cc(S(=O)(=O)N3CCC(C(=O)NCc4ccccc4)CC3)ccc21,inactive: -18.6%,–
CCN(Cc1ccccc1)C(=O)Cn1c(=O)n(-c2ccc(Cl)cc2)c(=O)c2c(C)c(C)sc21,inactive: -5.3%,–
Cc1ccc(CN2CCSc3ccc(C(=O)Nc4ccc(C)cc4)cc32)cc1,inactive: 8.22%,–
CCCCN1CCC(CNC(=O)c2c3n(c4ccccc24)CCCO3)CC1,inactive: -30.8%,–
Cc1ccc(Cn2c(=O)n(Cc3ccco3)c(=O)c3oc4ccccc4c32)cc1,inactive: -4.79%,–
CCOc1ccc(OCC)c(NC(=O)c2cnc(SC)nc2-c2ccccc2)c1,inactive: -21.8%,–
C[C@]12CC[C@H]3[C@@H](CCC4=CC(=O)CC[C@@]43C)[C@@H]1CC[C@@H]2C(=O)CO,inactive: -12.2%,–
Cc1ccc(C)c(NC(=O)CSc2nc3c([nH]c4ccccc43)c(=O)n2-c2ccc(F)cc2)c1,inactive: -8.05%,–
Cc1ccc(C)c(Cn2c(=O)n(-c3ccc(Cl)cc3)c(=O)c3c(C)c(C)sc32)c1,inactive: 0.521%,–
COc1ccc(CC(=O)NCC(c2ccc(Cl)cc2)N2CCOCC2)cc1 (stereo not given),inactive: -9.41%,–
Cc1ccc(S(=O)(=O)c2nnn3c2nc(NC2CCCCC2)c2sccc23)cc1,inactive: -7.4%,–
CN(C)S(=O)(=O)c1ccc2c(c1)nnn2CCNC(=O)Nc1ccc(Cl)cc1,inactive: -14%,–
Cc1ccccc1OCc1nc2ccccc2n1Cc1ccccc1Cl,inactive: -24.1%,–
CC(=O)c1ccc(NC(=O)CSc2cn(CC(=O)N(C(C)C)C(C)C)c3ccccc23)cc1,inactive: -17.7%,–
CCCCN(CC)C(=O)CCNS(=O)(=O)c1ccc2c(c1)c(=O)n(C)c(=O)n2C,inactive: -7.81%,–
Cc1cccc(Nc2ccncc2S(=O)(=O)NC(=O)NC(C)C)c1,inactive,–
CCCNC(=O)C1Cc2cc(S(=O)(=O)N3CCCCCC3)ccc2N1C(C)=O (stereo not given),inactive: -3.75%,–
CCCn1cnc2cc(NCc3ccccc3OCC)ccc21,inactive: -9.38%,–
